# Where “and” joins values, the source holds several entries; their conditions need not be identical. Equal values may be shown once. The inconclusive results got no clear call from the source; some entries with a clear call stand among them for comparison. Potencies beside an inconclusive call are fits to weak or partial responses and may not hold up. Calls of active or inactive are those of the source. Calls follow the shape of the dose curve; as a rule, active = well fitted curve in the direction sought with a large enough effect; inconclusive = small, poorly fitted or top-dose-only effect, or another doubt; inactive = no such curve, though single readings can be large; an effect the other way counts as inactive or inconclusive.
# Columns and labels:
# [1] = qHTS of pediatric cancer cell lines to identify multiple opportunities for drug repurposing: Primary screen for TC32 cells (AID 1347089); also: nearly all actives have a fitted effect of over 60% in size
# Procedure, shortened: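 Luminescent ATP read-out (CellTiter-Glo) of metabolically active TC32 cells after 48 h exposure. Concentration-response curves came from 11-point (MIPE, 0.78 nM–46 µM) or 8-point (NPC, 0.59 nM–46 µM) primary titrations; follow-up used 11 points.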
# [2] = qHTS of pediatric cancer cell lines to identify multiple opportunities for drug repurposing: Primary screen for SJ-GBM2 cells (AID 1347091)
# Procedure, shortened: (§1)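 Viability measured as metabolically active cells via CellTiter-Glo luminescence following 48 hours of compound exposure, 11-point dilutions in confirmatory testing. 500-1,000 cells/well plated 5 hours before dosing; controls were DMSO and 2.3 µM bortezomib.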
# [3] = qHTS of pediatric cancer cell lines to identify multiple opportunities for drug repurposing: Primary screen for SK-N-MC cells (AID 1347093); conditions: SK-N-MC viability, CellTiter-Glo luminescence, 48 h; series mostly up to 46 µM
# Procedure, shortened: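 Metabolically active cells were quantified by ATP-dependent luminescence (CellTiter-Glo, 15 min at room temperature) following 48 h treatment. Cells had been plated at 500-1,000 per well and settled for 5 h beforehand.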
# [4] = qHTS of pediatric cancer cell lines to identify multiple opportunities for drug repurposing: Primary screen for BT-37 cells (AID 1347094)
# Procedure, shortened: (§2)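 Readout: CellTiter-Glo luminescence, 48 h treatment. Controls DMSO (neutral) and bortezomib 2.3 µM final (positive). Potency and efficacy taken from primary-screen concentration-response curves.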
# [5] = qHTS of pediatric cancer cell lines to identify multiple opportunities for drug repurposing: Primary screen for NB-EBc1 cells (AID 1347095)
# Procedure, shortened: as §2
# [6] = qHTS of pediatric cancer cell lines to identify multiple opportunities for drug repurposing: Primary screen for U-2 OS cells (AID 1347096); also: nearly all actives have a fitted effect of over 50% in size
# Procedure, shortened: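 Viability after 48 h compound treatment at 37C, 500-1,000 cells/well, read as ATP luminescence with CellTiter-Glo. Primary screens used 11-point (MIPE, 0.78 nM-46 µM) or 8-point (NPC, 0.59 nM-46 µM) final concentrations; follow-up screens used 11-point dilutions.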
# [7] = qHTS of pediatric cancer cell lines to identify multiple opportunities for drug repurposing: Primary screen for DAOY cells (AID 1347090); also: nearly all actives have a fitted effect of over 55% in size
# Procedure, shortened: as §1
# Potency is read from the fitted curve at half-maximal effect; tags tell the direction and shape of the fitted curve.
Structure (SMILES),Potency [1],Potency [2],Potency [3],Potency [4],Potency [5],Potency [6],Potency [7]
C1CCC(C(CC2CCCCN2)C2CCCCC2)CC1 (stereo not given),"inconclusive: 29.7 µM [cytotoxic, single point]","inconclusive: 26.6 µM [cytotoxic, single point] and inconclusive: 33.2 µM [cytotoxic, single point]","inconclusive: 23.5 µM [cytotoxic, partial curve, poor fit]",active: 34.7 µM and active: 30.6 µM,"inconclusive: 29.9 µM [cytotoxic, single point]","inconclusive: 26.6 µM [cytotoxic, single point]",
N#CCNC(=O)c1ccc(-c2ccnc(Nc3ccc(N4CCOCC4)cc3)n2)cc1,"inconclusive: 18.6 µM [cytotoxic, partial curve]",active: 13.2 µM,active: 4.69 µM,active: 21.7 µM,"inconclusive: 37.2 µM [cytotoxic, single point]",,
Oc1c(I)cc(Cl)c2cccnc12,"inconclusive: 23.6 µM [cytotoxic, single point]",,,"inconclusive: 24.6 µM [cytotoxic, single point]","inconclusive: 18.8 µM [cytotoxic, single point]","inconclusive: 26.6 µM [cytotoxic, single point]","inconclusive: 33.5 µM [cytotoxic, single point]"
Nc1ncnc2c1ncn2[C@@H]1O[C@H](CO)[C@@H](O)[C@@H]1O,"inconclusive: 20.8 µM [cytotoxic, single point]",,,active: 5.44 µM,,active: 14.8 µM,active: 4.69 µM

# From PubChem BioAssay (NCATS)
